# Measured values taken from the supplement of paper PMC10338343.
# ± gives the standard deviation. This is a selection; strong and weak results do not stand in their true shares.
# Test system: MIWI (PIWIL1) piRISC loaded with L1MC piRNA (30 nt)
# Test: pre-steady-state target cleavage rate (min^-1); MIWI and MILI are mouse PIWI proteins and EfPiwi is from a freshwater sponge; tags in brackets are library labels; higher = faster piRNA-guided slicing of the target
# Settings: guide: L1MC piRNA 5'p-UAACUAAAUACUAUGCAAGCUGUAGGUCCU; auxiliary factor: 500 nM mouse GTSF1
# Summary of the method: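 Reactions were run for 0–8 or 0–960 min at 33 °C in HEPES–potassium acetate buffer, combining 1 nM active affinity-purified piRISC with one synthetic guide, […] transcribed, DNA-blocked target RNA library and, in some cases, 500 nM GTSF1 partner protein. Sequencing of uncleaved targets followed, with normalisation to depth and to weakly complementary targets. Three trials were pooled, k3 was capped at 0.0001 min^-1, and the pre-steady-state cleavage rate was taken from a burst-and-steady-state fit.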
# 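Further: 1 nM active piRISC with 0.1 nM target library at 33 °C single turnover.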
row,Sequence,pre-steady-state target cleavage rate
1,UGGACCUAGAGCUUGCAUAGUAUUUAGAAA,0.296 ± 0.034
2,UCCUGGAUGAGCUUGCAUAGUAUUUAGUUUA,0.737 ± 0.04
3,UCCACCUACAGCUUGCAUAGAAAUUAGUUA,0.204 ± 0.026
4,AGGACCAACUGCUUGCAUAGUAUUUAGUUA,1.22 ± 0.056
5,UCCUGGAUGUCGAACGUUAGUUAUUAGUUA,< 0.0001
6,AGGACCUACAGCUUGCAUAGUAUUUUGAAA,0.436 ± 0.049
7,UCCUGGUACAGCUUGCAUAGUAUUUACAUA,0.111 ± 0.023
8,UCCACCUACAGGAUGCAUAGUAUUUAGUUA,1.06 ± 0.17
9,UCCUGGAUGAGCUUGCAUUGUUUUUAGUUA,0.0119 ± 0.0042
10,AGGACCUACAGCUUGCAUAGUAAUAAGUUA,0.488 ± 0.052
11,UCCACCUACGGCUUGCAUAGUAUUUAGUUA,0.921 ± 0.074
12,UCCUGGAUGAGCUUGCAAAGUAUUUUGUUA,0.267 ± 0.029
13,UCCACCUACAGCUUGCAUACAAUUUAGUUA,0.0168 ± 0.0062
14,UCCACCUACAGCUUGCAUAGUAUUUAGUGUA,0.305 ± 0.04
15,UCCUGCUACAGCUGGCAUAGUAUUUAGUUA,1.04 ± 0.056
16,UCGACCUAGAGCUUGCAAAGUAUUUAGUUA,1.26 ± 0.04
17,UCGACCUACAGGUUGCAUACUAUUUAGUUA,0.273 ± 0.018
18,UCGAGCUACAGCUUGCAUAGUAUUUAGUAA,1.08 ± 0.082
19,UCCUGGAUGUGCUUGCAUAGUAUAUAGUUA,0.0692 ± 0.0098
20,AGGACCUACUCGUUGCAUAGUAUUUAGUAA,0.521 ± 0.038

row,Sequence,pre-steady-state target cleavage rate
1,UCCUGGUUCAGCUUGCAUAGUAUUUAGAAA,0.251 ± 0.036
2,UCCACCUACAGCUUGCAUAGUUUUUACUUA,0.173 ± 0.03
3,UCCUGGAUGUCGAACGUAAGUAUUUAUUA,< 0.0001
4,UCCUGGAACAGCUUGAAUAGUAUUUAGUUA,0.89 ± 0.047
5,UCCUGGAUGUGCUUGCAUCGUAUUUAGUUA,0.0767 ± 0.014
6,UCCUCCUACAGCUUGGAUAGUAUUUAGUUA,1.44 ± 0.045
7,AGGACCUACAGCUUGCAUAAUAUUUAGUUA,0.672 ± 0.037
8,AGGACCUACUGCUUGCAUAGUAUUUACAAA,0.234 ± 0.04
9,UCGUGGUACAGCUUGCAUAGUAUUUAGUAA,0.704 ± 0.05
10,UCCACCUACAGCUUGGAUAGUAUUUAGAAA,0.297 ± 0.045
11,UGGACCUACAGCUUGCAUAGUAUAAAGUAA,0.213 ± 0.028
12,UCCACGUACAGGUUGCAUAGUAUUUAGUUA,1.08 ± 0.035
13,UCCACCUACAGGUUGCAUAGUAUUUAGUAA,0.866 ± 0.1
14,UCCUGGAACUGCUUGCAUAGUAUUUAGUAA,0.419 ± 0.03
15,UCCUGGAUGUGCUUGCUUAGUAUUUUGUUA,0.0267 ± 0.006
16,UCGACCUACACGUUGCAUAGUAUUUAGUAA,0.774 ± 0.045
17,UCCUCCUUCAGCUUGCAAAGUAUUUAGUUA,1.16 ± 0.041
18,UCCACCUACAGCUUGCAUAGAAUUUUGUUA,0.324 ± 0.048
19,UCCUGGAUCAGCUUGCAUAGUUAAUAGUUA,0.0217 ± 0.0054
20,UCGUCCAACAGCUUGCAUAGUAUUUAGUUA,1.4 ± 0.044

# Same assay, conditions: guide: L1MC piRNA 5'p-UAACUAAAUACUAUGCAAGCUGUAGGUCCU; auxiliary factor: none (no GTSF1)
row,Sequence,pre-steady-state target cleavage rate
1,UGGACCUAGAGCUUGCAUAGUAUUUAGAAA,0.0101 ± 0.0034
2,UCCUGGAUGAGCUUGCAUAGUAUUUAGUUUA,0.0524 ± 0.012
3,UCCACCUACAGCUUGCAUAGAAAUUAGUUA,0.00272 ± 0.0024
4,AGGACCAACUGCUUGCAUAGUAUUUAGUUA,0.0799 ± 0.014
5,UCCUGGAUGUCGAACGUUAGUUAUUAGUUA,< 0.0001
6,AGGACCUACAGCUUGCAUAGUAUUUUGAAA,0.0119 ± 0.005
7,UCCUGGUACAGCUUGCAUAGUAUUUACAUA,0.0065 ± 0.0028
8,UCCACCUACAGGAUGCAUAGUAUUUAGUUA,0.00912 ± 0.0014
9,UCCUGGAUGAGCUUGCAUUGUUUUUAGUUA,0.00347 ± 0.0022
10,AGGACCUACAGCUUGCAUAGUAAUAAGUUA,0.00534 ± 0.0028
11,UCCACCUACGGCUUGCAUAGUAUUUAGUUA,0.0494 ± 0.01
12,UCCUGGAUGAGCUUGCAAAGUAUUUUGUUA,0.0136 ± 0.0037
13,UCCACCUACAGCUUGCAUACAAUUUAGUUA,0.00369 ± 0.0021
14,UCCACCUACAGCUUGCAUAGUAUUUAGUGUA,0.0284 ± 0.0077
15,UCCUGCUACAGCUGGCAUAGUAUUUAGUUA,0.0172 ± 0.0037
16,UCGACCUAGAGCUUGCAAAGUAUUUAGUUA,0.0315 ± 0.0064
17,UCGACCUACAGGUUGCAUACUAUUUAGUUA,0.0207 ± 0.004
18,UCGAGCUACAGCUUGCAUAGUAUUUAGUAA,0.0348 ± 0.0066
19,UCCUGGAUGUGCUUGCAUAGUAUAUAGUUA,0.0151 ± 0.0036
20,AGGACCUACUCGUUGCAUAGUAUUUAGUAA,0.0196 ± 0.0039

row,Sequence,pre-steady-state target cleavage rate
1,UCCUGGUUCAGCUUGCAUAGUAUUUAGAAA,0.00732 ± 0.0027
2,UCCACCUACAGCUUGCAUAGUUUUUACUUA,0.0106 ± 0.0026
3,UCCUGGAUGUCGAACGUAAGUAUUUAUUA,< 0.0001
4,UCCUGGAACAGCUUGAAUAGUAUUUAGUUA,0.0292 ± 0.006
5,UCCUGGAUGUGCUUGCAUCGUAUUUAGUUA,0.0191 ± 0.0038
6,UCCUCCUACAGCUUGGAUAGUAUUUAGUUA,0.0511 ± 0.0092
7,AGGACCUACAGCUUGCAUAAUAUUUAGUUA,0.0527 ± 0.0074
8,AGGACCUACUGCUUGCAUAGUAUUUACAAA,0.0115 ± 0.0033
9,UCGUGGUACAGCUUGCAUAGUAUUUAGUAA,0.0283 ± 0.0051
10,UCCACCUACAGCUUGGAUAGUAUUUAGAAA,0.00249 ± 0.002
11,UGGACCUACAGCUUGCAUAGUAUAAAGUAA,0.00435 ± 0.0024
12,UCCACGUACAGGUUGCAUAGUAUUUAGUUA,0.0352 ± 0.0061
13,UCCACCUACAGGUUGCAUAGUAUUUAGUAA,0.0134 ± 0.0028
14,UCCUGGAACUGCUUGCAUAGUAUUUAGUAA,0.0135 ± 0.0036
15,UCCUGGAUGUGCUUGCUUAGUAUUUUGUUA,0.00734 ± 0.0026
16,UCGACCUACACGUUGCAUAGUAUUUAGUAA,0.0103 ± 0.003
17,UCCUCCUUCAGCUUGCAAAGUAUUUAGUUA,0.0323 ± 0.0072
18,UCCACCUACAGCUUGCAUAGAAUUUUGUUA,0.0105 ± 0.003
19,UCCUGGAUCAGCUUGCAUAGUUAAUAGUUA,0.00865 ± 0.0029
20,UCGUCCAACAGCUUGCAUAGUAUUUAGUUA,0.0771 ± 0.014
